Measured values from the supplement of paper PMC7826260.
This is one part of the list. One pool of 16,384 single-stranded DNAs met each Rep nickase domain in vitro for 1 h at 37 °C with 3 µM enzyme; only the middle of the 90-letter strands is printed. A value is the log2 ratio of uncut reads to the pool without enzyme; strong cutting gives strongly negative numbers. There is no active / inactive call. Reads are scaled to the total, so uncut sequences can rise above 0 when many others are cut.

Legend:
Assay in all cases: uncleaved DNA left, log2 of reads against the no-enzyme library (log2 ratio); higher = less cleavage (more negative = more Rep cleavage of the k-mer); sequences stand for … in CTCGTCCG…ACCGGAGA
[1] = test system: T1, Rep nickase domain of Muscovy duck circovirus
T1 sequence (Rep 1-111, printed without the tag): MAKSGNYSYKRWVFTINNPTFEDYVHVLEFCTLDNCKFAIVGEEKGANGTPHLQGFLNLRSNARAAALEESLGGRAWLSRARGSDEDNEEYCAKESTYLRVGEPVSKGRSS
Description: (§1)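 A pool of 90-nt single-stranded DNAs with seven random bases just before the constant AC of the nick site (name = the seven bases) was cut by 3 µM recombinant His6-SUMO-tagged Rep nickase domain (300 nM DNA, 50 mM HEPES pH 8.0, 50 mM NaCl, 1 mM MnCl2, 1 h, 37 °C, three replicates). Uncut DNA was amplified and sequenced.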

[2] = test system: T2, Rep nickase domain of banana bunchy top virus
T2 sequence (Rep 1-94, printed without the tag): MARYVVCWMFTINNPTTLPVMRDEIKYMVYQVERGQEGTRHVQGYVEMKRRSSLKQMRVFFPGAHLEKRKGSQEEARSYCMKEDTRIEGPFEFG
Description: as §1

[3] = test system: T3, Rep nickase domain of cabbage leaf curl virus
T3 sequence (Rep 1-116, printed without the tag): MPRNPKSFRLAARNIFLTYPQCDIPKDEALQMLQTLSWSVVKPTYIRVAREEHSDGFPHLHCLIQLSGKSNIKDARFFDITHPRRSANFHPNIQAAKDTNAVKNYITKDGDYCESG
Description: as §1

[4] = test system: T4, Rep nickase domain of chickpea chlorotic dwarf virus
T4 sequence (Rep 1-124, printed without the tag): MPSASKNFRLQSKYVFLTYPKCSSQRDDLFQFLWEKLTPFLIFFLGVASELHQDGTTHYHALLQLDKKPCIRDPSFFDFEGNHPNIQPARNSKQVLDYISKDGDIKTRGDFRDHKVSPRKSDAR
Description: as §1

[5] = test system: T5, Rep nickase domain of faba bean necrotic yellows virus
T5 sequence (Rep 1-98, printed without the tag): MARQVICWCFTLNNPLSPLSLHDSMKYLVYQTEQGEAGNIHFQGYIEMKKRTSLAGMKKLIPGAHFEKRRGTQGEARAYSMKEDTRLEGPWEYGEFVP
Description: as §1

[6] = test system: T6, Rep nickase domain of maize striate mosaic virus
T6 sequence (Rep 1-117, printed without the tag): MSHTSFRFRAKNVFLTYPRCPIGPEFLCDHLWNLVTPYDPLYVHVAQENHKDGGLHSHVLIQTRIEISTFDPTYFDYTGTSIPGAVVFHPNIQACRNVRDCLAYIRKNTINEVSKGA
Description: as §1

[7] = test system: T7, Rep nickase domain of porcine circovirus 2
T7 sequence (Rep 2-116, printed without the tag): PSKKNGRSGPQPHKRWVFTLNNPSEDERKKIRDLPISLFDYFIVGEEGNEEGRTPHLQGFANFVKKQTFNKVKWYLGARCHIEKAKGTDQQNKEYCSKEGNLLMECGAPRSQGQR
Description: as §1

[8] = test system: T8, Rep nickase domain of tomato golden mosaic virus
T8 sequence (Rep 1-124, printed without the tag): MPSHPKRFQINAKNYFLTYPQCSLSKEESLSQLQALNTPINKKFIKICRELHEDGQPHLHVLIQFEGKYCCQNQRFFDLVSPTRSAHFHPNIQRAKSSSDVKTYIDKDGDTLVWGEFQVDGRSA
Description: as §1

[9] = test system: T9, Rep nickase domain of tomato yellow leaf curl virus
T9 sequence (Rep 1-136, printed without the tag): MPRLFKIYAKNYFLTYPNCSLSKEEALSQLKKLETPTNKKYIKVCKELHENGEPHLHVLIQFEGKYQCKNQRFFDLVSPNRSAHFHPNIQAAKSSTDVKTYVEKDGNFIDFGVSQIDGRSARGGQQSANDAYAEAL
Description: as §1

[10] = test system: T10, Rep nickase domain of wheat dwarf virus
T10 sequence (Rep 1-137, printed without the tag): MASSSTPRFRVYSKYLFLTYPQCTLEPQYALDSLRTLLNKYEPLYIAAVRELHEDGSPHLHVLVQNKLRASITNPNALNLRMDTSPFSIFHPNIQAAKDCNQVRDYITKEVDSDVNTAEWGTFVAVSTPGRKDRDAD
Description: as §1

Sequence | uncleaved DNA left (log2) [1] | uncleaved DNA left (log2) [2] | uncleaved DNA left (log2) [3] | uncleaved DNA left (log2) [4] | uncleaved DNA left (log2) [5] | uncleaved DNA left (log2) [6] | uncleaved DNA left (log2) [7] | uncleaved DNA left (log2) [8] | uncleaved DNA left (log2) [9] | uncleaved DNA left (log2) [10]
GTTCCAC | 0.032 | 0.0505 | 0.303 | 0.987 | -0.0258 | 1.73 | -0.00304 | -0.0133 | 0.107 | 0.112
GCGTTTA | -0.0685 | -0.0616 | -0.0784 | -0.0584 | -0.075 | 0.17 | -0.274 | -0.075 | -0.0441 | -0.0241
CTTTACC | -0.264 | -0.103 | -0.445 | -2.61 | -0.0624 | -0.693 | -1.3 | -0.154 | 0.0429 | -0.158
TCGCGCC | -0.0169 | -0.199 | -0.464 | -0.627 | -0.0791 | -0.823 | -0.0859 | -0.123 | -0.0948 | -0.174
TGCGGTT | -0.168 | -0.268 | -0.333 | -0.709 | -0.16 | -0.553 | -0.265 | -0.179 | -0.139 | -0.169
GTGCGTT | 0.0463 | 0.057 | -0.266 | -0.041 | 0.0883 | -0.258 | 0.00899 | 0.0594 | 0.0921 | -0.00209
CCTACAC | 0.0748 | -0.153 | -0.281 | -2.04 | 0.0343 | -0.816 | -0.0995 | -0.14 | -0.171 | -0.209
GAAGTTC | -0.0559 | -0.052 | 0.223 | -0.424 | -0.171 | 0.58 | -0.155 | -0.0751 | 0.0741 | 0.00937
GCAAACT | -0.00214 | 0.0389 | -0.0993 | -2.25 | -0.0217 | -0.395 | -0.03 | 0.0546 | -0.0817 | -0.0684
AGACGCG | 0.0417 | 0.171 | -0.578 | 0.49 | 0.139 | -0.525 | 0.271 | 0.074 | 0.0406 | 0.0841
AACTGAG | 0.151 | 0.0305 | -0.635 | -0.271 | 0.172 | -0.976 | 0.271 | 0.0554 | 0.153 | 0.0459
CGCGTCG | -0.0385 | -0.0237 | -0.604 | -0.231 | -0.0349 | -0.676 | 0.0817 | 0.0217 | -0.0182 | -0.0749
TCGGGAC | 0.248 | 0.337 | 1.15 | 2.17 | 0.298 | 2.43 | 0.454 | 0.312 | 0.302 | 0.378
CGAGTTA | -0.137 | -0.0268 | -0.245 | -0.698 | -0.0321 | -0.116 | -0.702 | -0.101 | -0.051 | -0.00831
CAGCGTT | -0.0261 | 0.0189 | -0.281 | -1.21 | -0.0162 | -0.697 | -2.66 | 0.0579 | 0.0771 | -0.0266
CGCCACC | -0.0157 | 0.0918 | 0.125 | -0.292 | -0.0159 | -0.103 | -0.267 | -0.0637 | 0.0423 | -0.0714
GCTAATA | 0.0941 | 0.0825 | 0.0476 | -0.0794 | -0.0315 | 0.168 | -0.00162 | 0.0822 | 0.0771 | 0.152
TCGGTAG | -0.0265 | 0.0451 | -0.17 | -0.174 | 0.04 | -0.639 | 0.253 | 0.0658 | 0.11 | -0.0555
TACCGTG | -0.186 | -0.275 | -0.853 | -1.32 | -0.106 | -1.25 | -0.419 | -0.123 | -0.186 | -0.295
ATAAAAA | -0.11 | -0.0611 | -0.0847 | -0.219 | -0.0497 | -0.724 | 0.0862 | -0.0245 | -0.051 | 0.0374
AATAATG | 0.141 | 0.00154 | -0.347 | -0.432 | 0.1 | -0.931 | 0.192 | 0.0965 | -0.024 | -0.011
CCACTCC | -0.18 | -0.123 | -0.0652 | -0.0541 | -0.105 | 0.451 | -0.0912 | -0.0846 | -0.0558 | -0.163
TATGTAC | 0.0817 | 0.00845 | 0.0782 | -0.455 | 0.0849 | -0.626 | -0.0851 | -0.0727 | 0.0697 | 0.0689
GTCCTGG | 0.0856 | -0.0318 | 0.275 | 0.866 | -0.00688 | 1.7 | 0.0325 | 0.133 | 0.0947 | 0.0228
AGGTTAT | -0.0152 | -0.0357 | 0.228 | 0.885 | -0.0579 | 1.38 | -1.11 | 0.0914 | -0.0951 | -0.0071
TTCGCGG | 0.0784 | 0.0417 | 0.442 | 1.2 | -0.00138 | 1.47 | 0.185 | 0.189 | -0.12 | 0.0475
CCCGTTG | -0.0327 | -0.0214 | -0.4 | -0.632 | -0.25 | -0.728 | 0.164 | 0.024 | 0.193 | -0.103
CGACTGA | -0.00659 | 0.00387 | -0.0184 | 0.62 | -0.102 | 1.69 | -0.0349 | -0.0195 | -0.152 | 0.0375
TTCTGGA | 0.0889 | -0.0444 | 0.0643 | 0.136 | -0.0577 | -0.187 | 0.0349 | -0.0737 | 0.0239 | 0.0454
CTGACTG | -0.0496 | -0.0178 | -0.0411 | 0.642 | -0.163 | 1.6 | 0.00555 | -0.0515 | -0.0142 | 0.0178
